First the molecules themselves.
T1: RBFOX1 RRM RbFoxmut (Fox-RRM*) (Homo sapiens, UniProt Q9NWB1 109-208, R118D;E147R;N151S;E152T)
T1 sequence: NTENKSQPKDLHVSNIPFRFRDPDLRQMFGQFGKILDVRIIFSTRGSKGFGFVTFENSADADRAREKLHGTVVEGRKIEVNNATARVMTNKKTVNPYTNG

B1: GUCUACG (DNA:RNA)
RNA: GGGAGACCGGAAUUCAGAUUGUCCGUCUACGUUAAAUCCCGUCGUAGCCACCA
DNA 1: CAATCTGAATTCCGGTCTCCC
DNA 2: TGGTGGCTACGACGGGATT
B2: AUGACUG (DNA:RNA)
RNA: B1 RNA with G25A, C27G, U28A, A29C, C30U
DNA 1: CAATCTGAATTCCGGTCTCCC
DNA 2: TGGTGGCTACGACGGGATT
B3: AAAGUAC (DNA:RNA)
RNA: GGGAGACCGGAAUUCAGAUUGUCCAAAGUACUUAAAUCCCGUCGUAGCCACCA
DNA 1: CAATCTGAATTCCGGTCTCCC
DNA 2: TGGTGGCTACGACGGGATT
B4: CGUUUAC (DNA:RNA)
RNA: B3 RNA with A25C, A26G, A27U, G28U
DNA 1: CAATCTGAATTCCGGTCTCCC
DNA 2: TGGTGGCTACGACGGGATT
B5: ACAGUGA (DNA:RNA)
RNA: B3 RNA with A26C, A30G, C31A
DNA 1: CAATCTGAATTCCGGTCTCCC
DNA 2: TGGTGGCTACGACGGGATT
B6: CCUGAUC (DNA:RNA)
RNA: B3 RNA with A25C, A26C, A27U, U29A, A30U
DNA 1: CAATCTGAATTCCGGTCTCCC
DNA 2: TGGTGGCTACGACGGGATT
B7: GCGGAUG (DNA:RNA)
RNA: B1 RNA with U26C, C27G, U28G, C30U
DNA 1: CAATCTGAATTCCGGTCTCCC
DNA 2: TGGTGGCTACGACGGGATT
B8: CUACUCG (DNA:RNA)
RNA: B1 RNA with G25C, C27A, U28C, A29U
DNA 1: CAATCTGAATTCCGGTCTCCC
DNA 2: TGGTGGCTACGACGGGATT
B9: GAUCACA (DNA:RNA)
RNA: B1 RNA with U26A, C27U, U28C, G31A
DNA 1: CAATCTGAATTCCGGTCTCCC
DNA 2: TGGTGGCTACGACGGGATT

Positions count from the first letter of the chain named. The list shows a part of the results.

For this assay, the target named is T1, RBFOX1 RRM RbFoxmut (Fox-RRM*). In words: EMSA; HiTS-Eq, 1 nM pool, 10 min; buffer printed only for the single-RNA assays: 10 mM Tris pH 7.5, 150 mM NaCl, 3.4 mM EDTA, 0.001% NP-40, 30 C. The note with it: tags: His6 N-terminal (pET28a); label: 5' 32P. In a few lines:
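Purified RbFox RRM (wild type or mutant) was equilibrated for 10 min in 50 µL with 1 nM of a 5′-radiolabelled pool of RNA with 7 randomized nucleotides, its flanks annealed to DNA oligonucleotides, across increasing protein concentrations. Free RNA was separated by 8% native PAGE, excised, reverse-transcribed, PCR-barcoded and sequenced on an Illumina HiSeq 2500. Relative association constants came from read-count changes of each variant against the control reaction, normalised to the cognate motif.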
(In EMSA bound probe runs differently from free probe, usually more slowly.)
Regarding B1, the binding signal is 0.12 KA relative to UGCAUGU. In the case of B2 it was 0.177 KA relative to UGCAUGU; in that of B3, 0.097 KA relative to UGCAUGU. In the case of B4 it was 0.148 KA relative to UGCAUGU; in that of B5, 0.121 KA relative to UGCAUGU. As to B6, the binding signal was 0.0568 KA relative to UGCAUGU. In the case of B7 it was 0.261 KA relative to UGCAUGU; in that of B8, 0.0905 KA relative to UGCAUGU; in that of B9, 0.0738 KA relative to UGCAUGU.
